Results taken from the supplement of paper PMC3334620.
In all, about 33,000 sequences were measured (“E-score (-0.5 to 0.5)”: median about -0.04, highest 2% from about 0.36 on). The list shows a part of the results.

Target: T1, Hmlalpha2 (UniProt P0CY09)
T1 sequence: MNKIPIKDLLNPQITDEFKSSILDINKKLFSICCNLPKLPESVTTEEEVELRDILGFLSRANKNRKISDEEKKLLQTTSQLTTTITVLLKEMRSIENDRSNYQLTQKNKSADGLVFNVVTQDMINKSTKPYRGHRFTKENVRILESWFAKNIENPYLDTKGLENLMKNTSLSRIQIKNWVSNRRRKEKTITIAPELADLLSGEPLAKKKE
Experiment: PBM E-score (8-mer binding enrichment) (E-score (-0.5 to 0.5)); higher = stronger / more preferred TF binding; most listed sequences are background and not binding sites
Settings: protein concentration: 200 nM; construct: GST-full length
Outline: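 The E-score, a modified Wilcoxon-Mann-Whitney statistic, was computed by the Universal PBM Analysis Suite for every ungapped eight-base word pooled with its reverse complement. Scans behind it were normalised with masliner after bound GST-tagged yeast transcription factors were detected with fluorescent anti-GST. The proteins, at about 100-200 nM, had been applied to universal all-10-mer Agilent arrays made double-stranded by primer extension.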

| Sequence | PBM E-score |
| --- | --- |
| ACGGATGG | -0.11 |
| GCCTCATA | -0.312 |
| ACGAGGGC | -0.131 |
| AGGGCGAG | -0.195 |
| AGTAATCC | 0.181 |
| CCCTGATA | -0.282 |
| GAAGAGTC | 0.166 |
| CTGATTCA | 0.0122 |
| CAGTTGGA | -0.2 |
| CGTCGATA | 0.116 |
| ATCAAAAC | 0.0781 |
| GACTATCA | -0.101 |
| AAAGGCTC | -0.223 |
| ACCTCTTA | 0.0621 |
| TCTCACAA | -0.0754 |
| ATCGCAAC | -0.04 |
| AATGAGCT | -0.0972 |
| AATATGCA | -0.0317 |
| ATCAGACC | -0.123 |
| GGAAGTCC | -0.303 |
| GATGTAGC | -0.0783 |
| CACGAGGC | 0.0563 |
| CGGCAAAA | -0.11 |
| GCAAAAGC | 0.0892 |
| CGGTCGTA | -0.332 |

| Sequence | PBM E-score |
| --- | --- |
| CAAGGTAG | -0.11 |
| ACGAGGCA | 0.11 |
| GGGGTCCA | -0.276 |
| CAGGAGGC | -0.267 |
| GCCATCGA | -0.104 |
| AACTAAAC | 0.0711 |
| CGCCGGAG | -0.168 |
| ATCTAAAT | 0.11 |
| CTTCGGTC | 0.0585 |
| CTTTCGCA | -0.0307 |
| ATCGTGAC | -0.0005 |
| GCTTAGTA | 0.152 |
| ATTCTCGA | 0.018 |
| CAATTACC | 0.0295 |
| CCATAGTA | -0.0457 |
| AGTGAACG | -0.0185 |
| CTGCTACC | -0.131 |
| ACTCCTTG | -0.033 |
| AAATACGA | 0.231 |
| ACGCTACC | -0.172 |
| AGAGGCCC | -0.341 |
| ATTTTATC | 0.144 |
| AGCGATTC | -0.186 |
| GAGGTTAA | 0.061 |
| GCCAACCC | -0.205 |

| Sequence | PBM E-score |
| --- | --- |
| CCTGCGCA | -0.292 |
| GCCTAAAA | -0.118 |
| ATCGAAAC | -0.0565 |
| GTACCAAC | 0.199 |
| CAGGCCCA | -0.135 |
| ACGCTGAC | 0.0606 |
| TACATCGA | 0.177 |
| ATCGGGTA | -0.101 |
| CTTACGCC | 0.0948 |
| CCAGTTCG | -0.131 |
| AGGAATCC | -0.178 |
| ACGCGTTG | 0.341 |
| GCTGTTAA | 0.262 |
| CAGTGACG | -0.0973 |
| CCGTCCTA | -0.147 |
| ACAGCTAT | 0.0847 |
| CATCGACC | -0.213 |
| GAATGATA | 0.0352 |
| AAAACTCA | 0.14 |
| ACGGCACT | -0.102 |
| CGTGTGAG | 0.138 |
| GCATTTTA | 0.0743 |
| TATGAAGA | 0.0275 |
| AAGCAATT | 0.0992 |
| AGATGTGA | -0.0114 |

| Sequence | PBM E-score |
| --- | --- |
| CATGTTTA | 0.437 |
| CTCTTCTC | -0.254 |
| CCCAGGCG | -0.0902 |
| ACTTGCTC | -0.136 |
| CATTCACA | 0.165 |
| ACCATAAT | -0.0158 |
| ACCGACGT | -0.0135 |
| GCACGTTA | 0.265 |
| ATCTACTG | 0.0942 |
| CACAGTGA | 0.00389 |
| AACGGTTC | -0.139 |
| CATGTGGG | -0.0335 |
| AAAGACAA | 0.229 |
| ACCTGTTC | 0.177 |
| GTAATAAA | 0.35 |
| AGCACAAT | 0.0685 |
| ACACCATC | 0.0914 |
| CCGGCAAA | -0.015 |
| GTCAGTTA | -0.0473 |
| CAACTTCC | 0.0425 |
| ACCTAGTG | 0.0188 |
| CACAGCTC | -0.016 |
| AGAGACTA | -0.0734 |
| GGCACGAC | 0.0237 |
| AAGATTGG | -0.0247 |

| Sequence | PBM E-score |
| --- | --- |
| AAATTCTG | 0.0112 |
| CGTCGTAA | 0.0838 |
| AATGGGTC | -0.273 |
| CACAGATC | -0.0314 |
| CCGATCCC | -0.343 |
| AGTTTGCA | -0.0729 |
| GCGCCATA | -0.0992 |
| AAATGCAG | -0.012 |
| TCAGGGAA | -0.158 |
| TCTTGCCA | -0.0766 |
| CCTATTAG | -0.0352 |
| CCCCATAA | -0.137 |
| CGCTGGCA | -0.0288 |
| AGGGATTC | -0.208 |
| CAGCATCG | -0.153 |
| CCATATGC | -0.104 |
| GCAGGACC | -0.366 |
| CCCATTCG | -0.0725 |
| GCCGGAGC | -0.276 |
| GTTTCCGA | -0.106 |
| CCACTATA | -0.0153 |
| GAAATGAC | 0.0702 |
| AATATGCG | 0.0558 |
| AAGCCCTG | 0.0331 |
| AATTTTGC | 0.0899 |

| Sequence | PBM E-score |
| --- | --- |
| AGAATGCC | -0.189 |
| TAGAAATA | 0.172 |
| TGGTCGAA | -0.163 |
| AGTGAACA | 0.154 |
| CGCTTTAG | -0.167 |
| GTTGTTGA | 0.259 |
| GATTTGTA | 0.186 |
| ACCTGTCC | -0.317 |
| CTGGCCAC | -0.134 |
| GATCTATA | 0.144 |
| CAAACCCG | -0.0693 |
| AGTTAGCC | -0.136 |
| ACGGATAG | -0.0714 |
| GGAACTGA | -0.163 |
| CAGCGTCG | 0.0498 |
| ACGGCCGA | 0.0121 |
| GACTAATA | 0.104 |
| CGCTTCTC | -0.23 |
| CCAGAGCC | -0.185 |
| ATGTAAGG | 0.313 |
| ACCGTGAG | -0.152 |
| CTAGATCA | -0.0964 |
| TTAAGGAA | -0.0151 |
| ACACGAAG | 0.358 |
| AGGAAAGG | -0.238 |

| Sequence | PBM E-score |
| --- | --- |
| CGTTCAAC | 0.23 |
| CTTGCTGC | -0.105 |
| GATGCAAC | -0.0922 |
| AACTCGAA | 0.0198 |
| AGCTCATC | -0.322 |
| GACGGGCA | -0.113 |
| CGCAGTAC | -0.0774 |
| TCGCCTAA | -0.0805 |
| CCTAACAG | -0.00251 |
| ACGTTATG | 0.268 |
| GCTTATTA | 0.211 |
| CATGGCTA | 0.0496 |
| GGACAGAA | -0.0416 |
| GATTCCGA | -0.282 |
| AAACTAGT | 0.062 |
| CGCTCTTC | -0.315 |
| AAAGATTA | 0.156 |
| ATGAGCGC | -0.141 |
| ATACGAGG | -0.121 |
| AGCCGCGA | -0.289 |
| GGACGATA | -0.141 |
| CGTCGCGC | -0.238 |
| CATCCCGC | -0.167 |
| ACTCGCCG | -0.0204 |
| GTACACCA | 0.089 |

| Sequence | PBM E-score |
| --- | --- |
| CAGACTCA | -0.0714 |
| GACCCGCC | 0.0617 |
| AATCAGGA | -0.182 |
| AGCGTAGA | -0.119 |
| AGCTGCCC | -0.0944 |
| ATAAGTGA | -0.0374 |
| GCCAATAC | 0.114 |
| ATCACATG | 0.306 |
| ACAACGGA | 0.172 |
| CCCCTCGG | -0.158 |
| AGATGGCT | -0.206 |
| AAGCTCAC | 0.00292 |
| ACCACGAC | -0.0364 |
| ATTCATTG | 0.0908 |
| GCTTGCGA | 0.0419 |
| CTGATCCC | -0.259 |
| CTACATAG | 0.406 |
| ACATGGTG | 0.414 |
| AAGAGCAT | 0.114 |
| CTCGAGGA | -0.0547 |
| ACGGGACC | -0.0882 |
| ATGGCAAG | -0.153 |
| AGTATCAG | -0.0806 |
| CCCGAACG | -0.193 |
| CAAAATGG | -0.166 |

| Sequence | PBM E-score |
| --- | --- |
| AGCGCTTC | -0.0987 |
| ACCCGGGT | -0.278 |
| CACTTGGG | -0.131 |
| TAACGGAA | 0.0633 |
| CCCCCTTC | -0.428 |
| CGTTACGC | 0.204 |
| TGCCACAA | 0.036 |
| CAACATTC | 0.036 |
| CTAAAAGC | -0.293 |
| AAATGTTC | 0.064 |
| AACCCATG | 0.154 |
| ATTCCGCA | -0.0371 |
| CTTTGAGA | 0.115 |
| ATACAAGG | 0.295 |
| AAACGCCC | -0.192 |
| ATGCATCA | 0.191 |
| CACAACTC | 0.0225 |
| CAAACAAG | 0.0478 |
| GCATCTCA | -0.0376 |
